In paper PMC4336329 (PLoS ONE, 2015):
Hit rate of the full screen: of about 310,000 compounds, about 14,000 (4.5%) showed an effect of 50% or more. The effect is printed as a negative number. The list shows a part of the results.

molecular target: human ether-à-go-go-related gene (hERG) potassium channel (human, UniProt Q12809); experiment: primary screen, population patch clamp on CHO cells stably expressing hERG
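Also: peak tail current of the secondary pulse compared with the same well before compound.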

human ether-à-go-go-related gene (hERG) potassium channel, sequence (Q12809 whole entry, looked up): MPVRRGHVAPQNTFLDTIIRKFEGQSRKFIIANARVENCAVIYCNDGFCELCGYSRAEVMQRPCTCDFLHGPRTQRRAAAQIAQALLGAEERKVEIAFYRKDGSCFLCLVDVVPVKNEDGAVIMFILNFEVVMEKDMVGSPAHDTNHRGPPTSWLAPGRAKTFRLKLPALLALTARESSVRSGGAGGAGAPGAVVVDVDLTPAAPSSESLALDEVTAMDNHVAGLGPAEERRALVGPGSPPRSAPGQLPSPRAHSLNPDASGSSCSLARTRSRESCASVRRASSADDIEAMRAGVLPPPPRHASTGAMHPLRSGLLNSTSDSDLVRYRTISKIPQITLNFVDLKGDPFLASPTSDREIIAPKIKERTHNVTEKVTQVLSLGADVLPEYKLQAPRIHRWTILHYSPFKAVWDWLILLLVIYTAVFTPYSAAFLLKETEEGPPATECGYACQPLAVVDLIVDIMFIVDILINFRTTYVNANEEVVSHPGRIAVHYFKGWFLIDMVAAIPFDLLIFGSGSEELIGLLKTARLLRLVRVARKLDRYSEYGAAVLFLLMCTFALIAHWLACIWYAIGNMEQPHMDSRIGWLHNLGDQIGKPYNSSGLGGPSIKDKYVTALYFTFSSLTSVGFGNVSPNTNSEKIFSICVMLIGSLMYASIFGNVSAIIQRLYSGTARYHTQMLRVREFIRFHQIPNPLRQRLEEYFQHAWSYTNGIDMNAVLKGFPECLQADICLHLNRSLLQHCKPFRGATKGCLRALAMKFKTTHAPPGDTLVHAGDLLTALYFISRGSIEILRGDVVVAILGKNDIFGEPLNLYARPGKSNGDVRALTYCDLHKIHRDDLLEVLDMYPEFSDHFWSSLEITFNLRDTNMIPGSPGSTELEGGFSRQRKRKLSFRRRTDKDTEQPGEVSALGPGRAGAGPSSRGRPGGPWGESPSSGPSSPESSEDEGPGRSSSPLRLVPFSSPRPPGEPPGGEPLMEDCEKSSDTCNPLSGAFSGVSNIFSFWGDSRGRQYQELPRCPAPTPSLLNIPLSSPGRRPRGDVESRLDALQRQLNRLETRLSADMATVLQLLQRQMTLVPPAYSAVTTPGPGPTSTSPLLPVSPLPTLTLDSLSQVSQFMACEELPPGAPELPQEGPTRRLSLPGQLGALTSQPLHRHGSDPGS

Compound | hERG current change (%, negative = inhibition) at 10uM [%]
O=c1c(Cc2ccc(F)cc2)c(O)ccn1CCCN1CCOCC1 | 17.3
O=C(c1ccccc1)c1cccc[n+]1[O-] | 19.7
Cc1ccccc1OCc1nc(-c2ccc(NC(=O)c3ccco3)cc2)no1 | 5.41
O=C(OCC(=O)N1CCCc2ccccc21)c1cncc(Br)c1 | -5.52
COc1ccccc1CN(C)CC(=O)Nc1ccc(Cl)cc1F | -5.73
Cc1nn2c(N3CCCC3)c3c(nc2c1-c1ccccc1)CCC3 | 7.19
CC1CCN(C(=O)Nc2ccc3nsnc3c2)CC1 | -8.2
O=C(O)CCc1ccc(-c2cccs2)o1 | 6.62
CCCn1nnc(NC(=O)COc2ccc(Cl)cc2)n1 | -6.92
O=C(Nc1cccc(C(=O)N2CCN(c3ccccc3)CC2)c1)c1ccco1 | -15.8
COc1ccc(NC(=O)/C=C/c2ccc(C)o2)cc1S(=O)(=O)N1CCOCC1 | -14.2
CC1CCN(C2CC(=O)N(c3ccc(Br)cc3Br)C2=O)CC1 (stereo not shown) | 2.17
CN(C)S(=O)(=O)n1cc(/C=C(\NC(=O)c2ccccc2Cl)C(=O)NCCN2CCOCC2)c2ccccc21 | 11.3
CC(c1ccc(F)cc1)n1cc(C(=O)NCc2ccc3c(c2)OCO3)nn1 (stereo not shown) | -3.81
COc1ccc(NC(=O)CCCSc2ccccc2)cc1 | 14.7
CCOc1ccc(NC(=S)NNc2ccnc3cc(Cl)ccc23)cc1 | -17.3
CCOc1ccccc1NC1=NCC(=O)N1Cc1ccc(F)cc1 | -5.41
Cc1ccsc1C(=O)OCC(=O)Nc1nnc(-c2ccccc2)o1 | 13.9
COc1ccc(NCC(=O)N/N=C/C=C/c2ccccc2[N+](=O)[O-])cc1 | 5.54
COc1cc(Br)c(/C=C/c2ccc3cccc(O)c3n2)cc1OC | 15.3
CCOc1cc(N2CCOCC2)c(OCC)cc1NC(=O)c1ccc(C)s1 | 15.4
CCOc1ccccc1N1CCN(C(=O)c2cc(-c3cc(OC)ccc3OC)nc3ccccc23)CC1 | -12.1
Cc1nn(Cc2noc(C(=O)NCc3ccc(F)cc3)n2)c(C)c1Br | 6.28
COc1ccc(CC2C(=O)OC(C)(C)OC2=O)c(Cl)c1OC | 11.3
CCOC(=O)N1CCN(C(=O)/C(=C/c2ccc(OC)c(OC)c2)NC(=O)c2ccccc2)CC1 | -34.5
